In all, about 43,000 compounds went through this assay and about 200 (0.47%) were called active. Inconclusive results (about 12%) are left out. Calls follow the shape of the dose curve; as a rule, active = well fitted cell-killing curve with a large enough effect; inconclusive = small, poorly fitted or top-dose-only effect, or effect the other way; inactive = flat fitted curve, though single readings scatter. This is one part of the list.
Assay: Cell viability qHTS assay in S16 Pmp22-F2sN cells; also: nearly all actives have a fitted effect of over 65% in size
Details: S16 Pmp22-F2sN Schwann cells (luciferase reporters placed in the Pmp22 gene) viability, CellTiter-Glo, 24 h; series mostly up to 57.5 µM; activity change, negative = cytotoxicity: at the top concentration
Method in brief: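 Luminescence from CellTiter-Glo, read by CCD camera after a 15 min room-temperature incubation, served as the viability signal. Reporter Schwann cells (S16 Pmp22-F2sN) had been treated with pin-transferred compounds for 24 h at 37C.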
% is scaled to controls: 0 for no effect and ±100 for the full control effect.

Q: With `COc1cccc(-c2ccc3c(N)c(C(=O)Nc4cc(F)ccc4F)sc3n2)c1` as the compound, how does the “activity change, negative = cytotoxicity” value read?
A: inactive: 20.5%

Q: With `CCOC(=O)C1CCCN(C(=O)c2ccc(-n3ccc4ccccc43)s2)C1` (stereo unspecified) as the compound, how does the “activity change, negative = cytotoxicity” value read?
A: inactive: 6.98%

Q: With `CC(=O)c1cccc(NS(=O)(=O)c2ccc3c(c2)NC(=O)CC(=O)N3)c1` as the compound, how does the “activity change, negative = cytotoxicity” value read?
A: inactive: 4.87%

Q: With `CCN(Cc1ccccc1)C(=O)c1cc2c(s1)-c1c(C)cccc1OC2` as the compound, how does the “activity change, negative = cytotoxicity” value read?
A: inactive: 1.67%

Q: Which “activity change, negative = cytotoxicity” value does the source give for `Cc1ccc(Cl)cc1NC(=O)Cn1c(=O)n(Cc2ccc(C(=O)NCc3ccc4c(c3)OCO4)cc2)c(=O)c2ccccc21` here?
A: inactive: -1.1%

Q: With `CC(=O)N1c2c(cc(Br)cc2S(=O)(=O)N2CCN(c3cccc(Cl)c3)CC2)CC1C` (stereo unspecified) as the compound, how does the “activity change, negative = cytotoxicity” value read?
A: inactive: -0.813%

Q: Which “activity change, negative = cytotoxicity” value does the source give for `COc1cccc(N2CCN(C(=O)c3cnn(-c4ccc(C)cc4C)c3C3CCN(C(=O)OC(C)(C)C)CC3)CC2)c1` here?
A: inactive: -28.1%

Q: For `CCOc1ccc(-c2csc(/C(C#N)=C/c3ccc(Br)cc3)n2)cc1`, which “activity change, negative = cytotoxicity” value is on record?
A: inactive: 15%

Q: With `O=c1c2cnn(-c3ccc(Cl)cc3)c2ncn1Cc1cccc(C(F)(F)F)c1` as the compound, how does the “activity change, negative = cytotoxicity” value read?
A: inactive: -1.75%

Q: For `COc1ccc(NC(=O)CSc2cc(-c3ccccc3)nc(C)n2)cc1`, which “activity change, negative = cytotoxicity” value is on record?
A: inactive: -0.379%

Q: Which “activity change, negative = cytotoxicity” value does the source give for `O=c1cc(CSc2n[nH]c(-c3ccccc3)n2)[nH]c2ccccc12` here?
A: inactive: -15.1%

Q: With `COc1ccccc1NC(=O)CSc1oc(-c2cccs2)nc1S(=O)(=O)c1ccccc1` as the compound, how does the “activity change, negative = cytotoxicity” value read?
A: inactive: -2.77%

Q: Which “activity change, negative = cytotoxicity” value does the source give for `COc1cc(NC(=O)c2cc3c(=O)n(Cc4cccs4)ccc3nc2C)cc(OC)c1OC` here?
A: inactive: -11.1%

Q: Which “activity change, negative = cytotoxicity” value does the source give for `CC(Oc1ccccc1Cl)C(=O)N1CCN(CCc2ccccn2)CC1` (stereo unspecified) here?
A: inactive: 0.11%

Q: With `CCc1cccc(NC(=O)Cn2nc(-c3cc(C)ccc3C)ccc2=O)c1` as the compound, how does the “activity change, negative = cytotoxicity” value read?
A: inactive: 1.55%

Q: With `Cc1ccc(CN2C(=O)C3(c4ccccc42)N(c2cccc(C(F)(F)F)c2)C(=O)CS3(=O)=O)cc1` (stereo unspecified) as the compound, how does the “activity change, negative = cytotoxicity” value read?
A: inactive: 3.82%

Q: With `COc1ccc(OC)c(NC(=O)CN2C(=O)CCc3cc(S(=O)(=O)N4CCCCC4)ccc32)c1` as the compound, how does the “activity change, negative = cytotoxicity” value read?
A: inactive: -23%

Q: For `O=C(NC1CCCCC1)c1ccc2c(c1)N(Cc1ccc(Cl)cc1)C(=O)c1ccccc1S2(=O)=O`, which “activity change, negative = cytotoxicity” value is on record?
A: inactive: 12.6%

Q: For `O=C(CN1C(=O)COc2ccc(S(=O)(=O)N3CCOCC3)cc21)N1CCN(c2ccc(F)cc2)CC1`, which “activity change, negative = cytotoxicity” value is on record?
A: inactive: 9.92%

Q: Which “activity change, negative = cytotoxicity” value does the source give for `CC(Sc1nc(=O)cc(N)n1CCc1ccccc1)C(=O)Nc1ccccc1C#N` (stereo unspecified) here?
A: inactive: 0.873%

Q: Which “activity change, negative = cytotoxicity” value does the source give for `CN(C)CCn1c2c(c(SCC(=O)Nc3ccc(F)cc3F)nc1=O)CCC2` here?
A: inactive: 19.1%

Q: For `CCc1ccc2oc(C(=O)Nc3sc4c(c3C(=O)NC)CCCC4)cc(=O)c2c1`, which “activity change, negative = cytotoxicity” value is on record?
A: inactive: 6.33%

Q: With `O=C(Nc1ccc(Cl)cc1F)c1cc(S(=O)(=O)NCc2ccc3c(c2)OCO3)ccc1F` as the compound, how does the “activity change, negative = cytotoxicity” value read?
A: inactive: 3.9%

Q: For `CCOc1ccc(C(=O)Nc2cccc(OCc3cc(=O)n4cc(C)sc4n3)c2)cc1`, which “activity change, negative = cytotoxicity” value is on record?
A: inactive: 12.8%

Q: For `CCCCOC(=O)c1cccc(NC(=O)c2cc3ccccc3o2)c1`, which “activity change, negative = cytotoxicity” value is on record?
A: inactive: -15.5%

Q: With `COc1cccc(CNCCSc2nnnn2C)c1OCc1ccccc1F` as the compound, how does the “activity change, negative = cytotoxicity” value read?
A: inactive: -9.36%

Q: With `COc1cccc(N2CC(NC(=O)c3ccc(S(=O)(=O)N4CCCCC4)cc3)CC2=O)c1` (stereo unspecified) as the compound, how does the “activity change, negative = cytotoxicity” value read?
A: inactive: 12.2%

Q: With `COc1ccc(-c2nc3ccccc3o2)cc1NC(=O)COc1ccc(C(C)(C)C)cc1` as the compound, how does the “activity change, negative = cytotoxicity” value read?
A: inactive: 3.13%

Q: With `O=[N+]([O-])c1ccc(C(c2sc3nc(-c4ccco4)nn3c2O)N2CCN(c3cccc(Cl)c3)CC2)cc1` (stereo unspecified) as the compound, how does the “activity change, negative = cytotoxicity” value read?
A: inactive: 0.564%

Q: With `Cc1ccc(C)c(Cn2nc(-c3cc(C)ccc3C)ccc2=O)c1` as the compound, how does the “activity change, negative = cytotoxicity” value read?
A: inactive: 1.92%

Q: With `CCOC(=O)c1c(S(=O)(=O)N2CCCC(C(=O)N3CCN(c4ccccc4)CC3)C2)c(C)n(C)c1C` (stereo unspecified) as the compound, how does the “activity change, negative = cytotoxicity” value read?
A: inactive: -0.671%

Q: For `Cc1ccccc1OC(=O)CSc1nnc(-c2cccs2)o1`, which “activity change, negative = cytotoxicity” value is on record?
A: inactive: -3.17%

Q: For `Cn1c(-n2cccc2)c(-c2c(-c3ccccc3)[nH]c3c2c(=O)[nH]c(=O)n3C)c(=O)[nH]c1=O`, which “activity change, negative = cytotoxicity” value is on record?
A: inactive: 7.71%

Q: Which “activity change, negative = cytotoxicity” value does the source give for `Cc1ccc2c(c1)N(CC(=O)NCCc1ccc(Cl)cc1)C(=O)c1cccnc1O2` here?
A: inactive: -0.149%

Q: For `CCOC(=O)c1[nH]c(C)c(C(=O)NC(CC)Cc2ccccc2)c1C` (stereo unspecified), which “activity change, negative = cytotoxicity” value is on record?
A: inactive: -17.9%

Q: For `O=C(CN1C(=O)COc2ccc(S(=O)(=O)NC3CCCC3)cc21)Nc1ccc(Cl)cc1`, which “activity change, negative = cytotoxicity” value is on record?
A: inactive: -0.655%

Q: For `O=C(Nc1cccc(-c2cn3cccnc3n2)c1)c1cc(Br)ccc1Cl`, which “activity change, negative = cytotoxicity” value is on record?
A: inactive: -21.5%

Q: For `Cc1ccc(C)c(NC(=O)Cn2c(=O)n(CC3CCCO3)c(=O)c3ccccc32)c1` (stereo unspecified), which “activity change, negative = cytotoxicity” value is on record?
A: inactive: 5.67%

Q: Which “activity change, negative = cytotoxicity” value does the source give for `CCN1CCN(c2ncnc3c2cnn3-c2ccc(C)c(C)c2)CC1` here?
A: inactive: -4.97%

Q: For `CC(=O)Nc1ccc(NC(=O)CSc2nc3ccccc3nc2N2CCCCC2)cc1`, which “activity change, negative = cytotoxicity” value is on record?
A: inactive: 25.8%

Q: Which “activity change, negative = cytotoxicity” value does the source give for `COc1ccc(C(=O)Nc2cc(C)c(O)c(-c3nc4ccccc4s3)c2)cc1OC` here?
A: inactive: -10.2%

Q: Which “activity change, negative = cytotoxicity” value does the source give for `CCOc1ccc(CNC(=O)c2ccc(CS(=O)Cc3ccc(Cl)cc3)o2)cc1` (stereo unspecified) here?
A: inactive: 12.5%

Q: Which “activity change, negative = cytotoxicity” value does the source give for `CCN(Cc1ccccc1)C(=O)CN1C(=O)COc2ccc(S(=O)(=O)NC3CCCC3)cc21` here?
A: inactive: 2.22%

Q: With `COc1cccc(CNC(=O)c2ccc3c(c2)nc2n3CCOC2)c1` as the compound, how does the “activity change, negative = cytotoxicity” value read?
A: inactive: 5.68%

Q: With `Cc1ccc(-c2nnn3c2nc(NCC(C)c2ccccc2)c2ccccc23)cc1` (stereo unspecified) as the compound, how does the “activity change, negative = cytotoxicity” value read?
A: inactive: -20.5%

Q: Which “activity change, negative = cytotoxicity” value does the source give for `Cc1ccc(CN2COc3ccc4c(-c5ccccc5)cc(=O)oc4c3C2)cc1` here?
A: inactive: 7.19%
